Results taken from publication PMC4468146.
No constants are given. Whether binding was seen depends on the method and setting. In cells and extracts the contact can be indirect. Some results given as binding are weak or reduced against the parent protein; the word gives no strength. Tags and fused reporters may be left off the sequences shown.

Protein sequences, listed by entry. Tags and fused reporters are not part of them. Residues count along the entry.
UniProt Q03135: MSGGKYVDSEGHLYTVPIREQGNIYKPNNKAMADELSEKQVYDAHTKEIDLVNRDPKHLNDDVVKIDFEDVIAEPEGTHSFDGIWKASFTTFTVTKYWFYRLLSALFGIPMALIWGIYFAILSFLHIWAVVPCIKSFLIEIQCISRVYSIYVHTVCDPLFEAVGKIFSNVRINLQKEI
UniProt P31946: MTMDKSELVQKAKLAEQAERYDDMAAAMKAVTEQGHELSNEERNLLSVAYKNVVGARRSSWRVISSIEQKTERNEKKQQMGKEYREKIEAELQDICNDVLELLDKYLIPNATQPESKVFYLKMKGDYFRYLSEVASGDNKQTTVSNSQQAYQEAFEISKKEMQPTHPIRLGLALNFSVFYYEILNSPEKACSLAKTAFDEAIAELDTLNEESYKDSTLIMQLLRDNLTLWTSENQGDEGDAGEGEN
UniProt P51570: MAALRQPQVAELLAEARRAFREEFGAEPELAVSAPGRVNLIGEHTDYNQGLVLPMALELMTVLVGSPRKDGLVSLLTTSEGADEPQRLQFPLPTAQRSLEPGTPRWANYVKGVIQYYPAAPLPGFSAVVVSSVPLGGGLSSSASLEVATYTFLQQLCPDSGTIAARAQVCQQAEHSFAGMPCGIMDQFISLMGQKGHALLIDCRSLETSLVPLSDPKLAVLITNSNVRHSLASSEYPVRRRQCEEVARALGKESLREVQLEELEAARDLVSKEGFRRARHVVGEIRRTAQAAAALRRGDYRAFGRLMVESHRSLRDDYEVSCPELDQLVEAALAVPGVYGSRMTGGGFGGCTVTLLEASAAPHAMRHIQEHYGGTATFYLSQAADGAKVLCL
UniProt Q15363, residues 21-201: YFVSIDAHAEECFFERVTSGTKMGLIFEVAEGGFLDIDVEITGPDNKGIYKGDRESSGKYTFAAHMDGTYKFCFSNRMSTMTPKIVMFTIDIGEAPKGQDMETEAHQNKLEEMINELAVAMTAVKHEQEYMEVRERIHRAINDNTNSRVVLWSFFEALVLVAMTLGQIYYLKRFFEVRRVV
UniProt P62258: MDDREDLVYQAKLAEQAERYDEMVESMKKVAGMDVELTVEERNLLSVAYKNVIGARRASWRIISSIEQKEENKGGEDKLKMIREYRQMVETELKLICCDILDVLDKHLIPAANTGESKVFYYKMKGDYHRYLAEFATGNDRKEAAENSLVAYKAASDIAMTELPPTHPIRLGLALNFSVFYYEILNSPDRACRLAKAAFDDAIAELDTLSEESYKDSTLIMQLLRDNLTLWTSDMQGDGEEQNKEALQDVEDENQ

B1: HA-tagged TMED10 (protein, UniProt P49755 32-219)
chain: ISFHLPINSRKCLREEIHKDLLVTGAYEISDQSGGAGGLRSHLKITDSAGHILYSKEDATKGKFAFTTEDYDMFEVCFESKGTGRIPDQLVILDMKHGVEAKNYEEIAKVEKLKPLEVELRRLEDLSESIVNDFAYMKKREEEMRDTNESTNTRVLYFSIFSMFCLIGLATWQVFYLRRFFKAKKLIE

molecular target: human glucagon receptor (GCGR), C-terminal Flag-tagged (human) (UniProt P47871); assay: co-IP; HA-tagged interactor and Flag-tagged GCGR co-transfected into CHO cells; anti-Flag Co-IP (M2 affinity gel), anti-HA Western blot; cells transfected with the HA-tagged interactor alone as control

**Q.** With “HA-tagged CAV1 (from UniProt Q03135 1-178)” as the molecule, how does the binding read?
**A.** The binding was “binds”.

**Q.** With “HA-tagged YWHAB (14-3-3 protein beta) (from UniProt P31946 1-246)” as the molecule, how does the binding read?
**A.** Its binding is “binds”.

**Q.** How did the binding turn out when “HA-tagged GALK1 (from UniProt P51570 1-392)” was run?
**A.** The binding was “binds”.

**Q.** Which binding does the source give for “HA-tagged TMED2 (from UniProt Q15363 21-201)” here?
**A.** The binding was “binds”.

**Q.** “HA-tagged LDLR (from UniProt P01130 22-860) (receptor)” was tested. Which binding did it give?
**A.** Its binding is “binds”.

**Q.** Which binding does the source give for “HA-tagged YWHAE (from UniProt P62258 1-255)” here?
**A.** The binding was “no binding”.

**Q.** With B1 as the molecule, how does the binding read?
**A.** The binding was “no binding”.
